For 24 compounds, cell count results are on record in the supplement of paper PMC4604168 (melanoma cell lines).

Molecules are shown by their SMILES. Some of the results follow. Single values are uncertain, as repeats are few or missing.
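Further: cell number obtained by counting DAPI-stained nuclei in high-throughput microscope images with image analysis software, screen run in 1,536-well plates.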

The experiment deals with WM451Lu. The experiment can be described thus: cell count relative to DMSO control; melanoma cells; higher = more viable cells. Particulars: library dose: low library concentration; 72 h.
With `Nc1nc(F)nc2c1ncn2[C@@H]1O[C@H](CO)[C@@H](O)[C@@H]1O` [fludarabine] + CCc1ccc(CCOc2ccc(CC3SC(=O)NC3=O)cc2)nc1 [pioglitazone] (first compound 0.2 µM, partner dose 2 µM), the cell count came to 51%.

Regarding `Nc1ccn([C@@H]2O[C@H](CO)[C@@H](O)C2(F)F)c(=O)n1` [gemcitabine] + O=C(Nc1cccc(Cl)c1)Nc1ncc(CCNc2ncnc3ccsc23)s1 [SNS314] (first compound 0.0004 µM, partner dose 0.0008 µM), the cell count was determined as 91.6%.

Regarding `Nc1ccn([C@@H]2O[C@H](CO)[C@@H](O)C2(F)F)c(=O)n1` [gemcitabine] + CN(C)S(=O)(=O)c1ccc2c(c1)/C(=C/c1cc3c([nH]1)CCCC3)C(=O)N2 [SU6656] (first compound 0.0004 µM, partner dose 0.4 µM), the cell count worked out at 113%.

In turn, `Nc1ncn([C@H]2C[C@H](O)[C@@H](CO)O2)c(=O)n1` [decitabine] + COc1cc(N2CCC(N3CCN(C)CC3)CC2)ccc1Nc1ncc(Cl)c(Nc2ccccc2S(=O)(=O)C(C)C)n1 [NVP-TAE684] (first compound 0.1 µM, partner dose 0.08 µM) gave a cell count of 115%.

For `CC(=O)O[C@@]12CO[C@@H]1C[C@H](O)[C@@]1(C)C(=O)[C@H](O)C3=C(C)[C@@H](OC(=O)[C@H](O)[C@@H](NC(=O)OC(C)(C)C)c4ccccc4)C[C@@](O)([C@@H](OC(=O)c4ccccc4)[C@H]21)C3(C)C` [Docetaxel] + CCCCCCCCCCCC1=C(O)C(=O)C=C(O)C1=O [Embelin] (first compound 0.0001 µM, partner dose 1.2 µM), the cell count is 50.7%.

In the case of `CC(=O)c1c(C)c2cnc(Nc3ccc(N4CCNCC4)cn3)nc2n(C2CCCC2)c1=O` [palbociclib] + O=C(Nc1cccc(Cl)c1)Nc1ncc(CCNc2ncnc3ccsc23)s1 [SNS314] (first compound 0.04 µM, partner dose 0.0008 µM), the cell count stood at 80.5%.

Consider `CC(=O)O[C@@]12CO[C@@H]1C[C@H](O)[C@@]1(C)C(=O)[C@H](O)C3=C(C)[C@@H](OC(=O)[C@H](O)[C@@H](NC(=O)OC(C)(C)C)c4ccccc4)C[C@@](O)([C@@H](OC(=O)c4ccccc4)[C@H]21)C3(C)C` [Docetaxel] + N#Cc1c(O)c2c(-c3ccc(-c4ccccc4O)cc3)csc2[nH]c1=O [A769662] (first compound 0.0001 µM, partner dose 2 µM), for which the cell count amounted to 74.3%.

`Nc1ccn([C@@H]2O[C@H](CO)[C@@H](O)C2(F)F)c(=O)n1` [gemcitabine] + CC(C)CCN1c2nc(Nc3cc(F)c(O)c(F)c3)ncc2N(C)C(=O)C1C [BID1870] (first compound 0.0004 µM, partner dose 0.2 µM) registered a cell count of 110%.

With `Nc1nc(F)nc2c1ncn2[C@@H]1O[C@H](CO)[C@@H](O)[C@@H]1O` [fludarabine] + N#Cc1c(O)c2c(-c3ccc(-c4ccccc4O)cc3)csc2[nH]c1=O [A769662] (first compound 0.2 µM, partner dose 2 µM), the cell count is 45.8%.

Regarding `Nc1ccn([C@@H]2O[C@H](CO)[C@@H](O)C2(F)F)c(=O)n1` [gemcitabine] + Cc1cc([N+](=O)[O-])ccc1NS(=O)(=O)c1cc(Cl)ccc1Cl [FH535] (first compound 0.0004 µM, partner dose 1 µM), the cell count was found to be 115%.

With `Nc1ccn([C@@H]2O[C@H](CO)[C@@H](O)C2(F)F)c(=O)n1` [gemcitabine] + Cc1cc(N2CCOCC2)cc2[nH]c(-c3c(NC[C@@H](O)c4cccc(Cl)c4)cc[nH]c3=O)nc12 [BMS536924] (first compound 0.0004 µM, partner dose 0.2 µM), the cell count came to 65.7%.

Consider `Nc1nc(F)nc2c1ncn2[C@@H]1O[C@H](CO)[C@@H](O)[C@@H]1O` [fludarabine] + CO[C@@H]1[C@H](N(C)C(=O)c2ccccc2)C[C@H]2O[C@]1(C)n1c3ccccc3c3c4c(c5c6ccccc6n2c5c31)C(=O)NC4 [Midostaurin] (first compound 0.2 µM, partner dose 0.08 µM), for which the cell count was determined as 41.9%.

Compound `Nc1ncn([C@H]2C[C@H](O)[C@@H](CO)O2)c(=O)n1` [decitabine] + O=C1NC(=O)/C(=C/c2ccc(-c3ccc(F)cc3O)o2)S1 [AS252424] (first compound 0.1 µM, partner dose 1 µM) displayed a cell count of 106%.

In turn, `Nc1ncn([C@H]2C[C@H](O)[C@@H](CO)O2)c(=O)n1` [decitabine] + CC(C)(C)c1cnc(CSc2cnc(NC(=O)C3CCNCC3)s2)o1 [SNS-032] (first compound 0.1 µM, partner dose 0.01 µM) registered a cell count of 99.9%.

`Nc1ccn([C@@H]2O[C@H](CO)[C@@H](O)C2(F)F)c(=O)n1` [gemcitabine] + COc1ccc2c(c1)CCC1C2CCC2(C)C(NCCCCCCN3C(=O)C=CC3=O)CCC12 [U73122] (first compound 0.0004 µM, partner dose 0.4 µM) registered a cell count of 94.2%.

On to `Nc1ncn([C@H]2C[C@H](O)[C@@H](CO)O2)c(=O)n1` [decitabine] + COc1cc2c(Oc3ccc4[nH]c(C)cc4c3F)ncnc2cc1OCCCN1CCCC1 [cediranib] (first compound 0.1 µM, partner dose 0.4 µM), for which the cell count amounted to 96.2%.

The compound `Nc1ncn([C@H]2C[C@H](O)[C@@H](CO)O2)c(=O)n1` [decitabine] + CN(C)S(=O)(=O)c1ccc2c(c1)/C(=C/c1cc3c([nH]1)CCCC3)C(=O)N2 [SU6656] (first compound 0.1 µM, partner dose 0.4 µM) registered a cell count of 92.2%.

Compound `CC(=O)O[C@@]12CO[C@@H]1C[C@H](O)[C@@]1(C)C(=O)[C@H](O)C3=C(C)[C@@H](OC(=O)[C@H](O)[C@@H](NC(=O)OC(C)(C)C)c4ccccc4)C[C@@](O)([C@@H](OC(=O)c4ccccc4)[C@H]21)C3(C)C` [Docetaxel] + COc1cc(N2CCC(N3CCN(C)CC3)CC2)ccc1Nc1ncc(Cl)c(Nc2ccccc2S(=O)(=O)C(C)C)n1 [NVP-TAE684] (first compound 0.0001 µM, partner dose 0.08 µM) registered a cell count of 49%.

The compound `Nc1nc(F)nc2c1ncn2[C@@H]1O[C@H](CO)[C@@H](O)[C@@H]1O` [fludarabine] + O=C(Nc1cccc(Cl)c1)Nc1ncc(CCNc2ncnc3ccsc23)s1 [SNS314] (first compound 0.2 µM, partner dose 0.0008 µM) returned a cell count of 42.1%.

The compound `CC(=O)O[C@@]12CO[C@@H]1C[C@H](O)[C@@]1(C)C(=O)[C@H](O)C3=C(C)[C@@H](OC(=O)[C@H](O)[C@@H](NC(=O)OC(C)(C)C)c4ccccc4)C[C@@](O)([C@@H](OC(=O)c4ccccc4)[C@H]21)C3(C)C` [Docetaxel] + CC(C)CCN1c2nc(Nc3cc(F)c(O)c(F)c3)ncc2N(C)C(=O)C1C [BID1870] (first compound 0.0001 µM, partner dose 0.2 µM) gave a cell count of 48.5%.

`Nc1ncn([C@H]2C[C@H](O)[C@@H](CO)O2)c(=O)n1` [decitabine] + COc1ccc(-c2ccc3c(N4CCOCC4)nc(N4C[C@@H](C)O[C@@H](C)C4)nc3n2)cc1CO [KU0063794] (first compound 0.1 µM, partner dose 0.02 µM) had a cell count of 76.1%.

As to `Nc1ccn([C@@H]2O[C@H](CO)[C@@H](O)C2(F)F)c(=O)n1` [gemcitabine] + CC1(C)NC(=O)N(c2ccc([N+](=O)[O-])c(C(F)(F)F)c2)C1=O [nilutamide] (first compound 0.0004 µM, partner dose 1 µM), the cell count is 108%.

As for `CC(=O)c1c(C)c2cnc(Nc3ccc(N4CCNCC4)cn3)nc2n(C2CCCC2)c1=O` [palbociclib] + CC(C)(C)c1cnc(CSc2cnc(NC(=O)C3CCNCC3)s2)o1 [SNS-032] (first compound 0.04 µM, partner dose 0.01 µM), the cell count is 104%.

Compound `Nc1ccn([C@@H]2O[C@H](CO)[C@@H](O)C2(F)F)c(=O)n1` [gemcitabine] + Cc1ccc(NC(=O)c2cccc(N(C)C)c2)cc1NC(=O)c1ccc(O)cc1 [ZM336372] (first compound 0.0004 µM, partner dose 2 µM) returned a cell count of 91.2%.
